Drawing on the supplement of paper PMC10681739, this text covers ETS1 binding intensity for 125 sequences.

± gives the standard deviation of the averaged measurements. The full ranking holds about 4,100 sequences; the median of “arbitrary fluorescence units” is about 780, and the highest 2% start at about 22,000. This is one part of the list.

The target of the experiment is T1, ETS1 (UniProt P14921).
T1 sequence: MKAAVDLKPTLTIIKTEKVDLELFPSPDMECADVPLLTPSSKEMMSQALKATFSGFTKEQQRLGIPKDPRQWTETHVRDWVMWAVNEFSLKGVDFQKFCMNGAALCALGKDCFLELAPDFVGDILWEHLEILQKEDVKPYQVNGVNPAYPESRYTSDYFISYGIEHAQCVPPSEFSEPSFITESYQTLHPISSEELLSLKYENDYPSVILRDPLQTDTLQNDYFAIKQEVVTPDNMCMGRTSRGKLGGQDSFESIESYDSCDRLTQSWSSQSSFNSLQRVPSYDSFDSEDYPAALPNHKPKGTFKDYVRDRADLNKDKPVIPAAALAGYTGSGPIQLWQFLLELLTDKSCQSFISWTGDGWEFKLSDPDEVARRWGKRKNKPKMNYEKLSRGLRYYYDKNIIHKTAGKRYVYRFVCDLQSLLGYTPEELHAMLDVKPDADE
As to the kind of experiment: ETS1 binding intensity (PBM fluorescence), ETS1 alone (arbitrary fluorescence units); higher = stronger binding. As to conditions: ETS1 concentration 1 nM; RUNX1 concentration 0 nM. In outline:
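Recombinant full-length human ETS1 was applied at 1 nM, without RUNX1, to double-stranded Agilent 4 × 180k arrays of 36-bp genomic probes carrying a mutated RUNX1 partner site, following standard PBM protocols. Detection used an anti-ETS1 antibody (Cell Signaling Technology 14069) and an Alexa488-conjugated secondary antibody, with scanning on a GenePix 4400A. Each sequence was printed as four replicate spots. Binding level is the spot fluorescence intensity, summarised across replicates and not normalised.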
CCTTGCTTCCTTCGGTGCAACCAGCGGGAATCCCAT gave an ETS1 binding intensity of 1380.
To GCCAACGCGCCCGGCCAAGCCTTTACTTCCTTTTAC belongs 493.
Turning to TTTGCTGTGATTATGACTTTCAACATACTTCCTGCT, the ETS1 binding intensity amounted to 867.
To GGGCTTATCTAGCGACAGCAGAACATCCTGCTCTGG belongs 1170.
Turning to TGTGTTAGTGGATTTCTCTTACGGCAGGAAGTGGGC, the ETS1 binding intensity was determined as 846.
The value for CAGGGCCCGGCATCCGCGCCATGGAACGCGCAGCTT was 675; that for TGGATTAGCCGCTAAACATAGTTTCCTGTTGTGTAA was 1890.
To GACAAACATACCCCTAGGACAGGATGTGAAATCCAC belongs 1310; to CCACACCTACAAGGCCAGCCTCACTTCCTCACTCCT, 657.
TTTGGGGCTCAAAATCACAGAGAAGCTTCCTATTGT came in with an ETS1 binding intensity of 329.
The value for CTTGCCACACTTCCTCTTGTTTTGAACCTCTATATT was 5040; that for CCCGCCACTTCCCTGCCTCTTCGGGAGCCCCCCAGC was 1560; that for CTGCGTTTCCTCTGAGTTTTGCATGTTGACGTTGGA was 3090.
To CGTCGTCTGGGAATCCGCCGACTTCCGGCCGCGCAG belongs 15200; to AGCGGCCAGGCCGCTGAGCCGGCCCCTTCCGCTTTA, 573.
The value for GAGGGAAGGGAACCGGCGCCGCCGGAAGGAGCCGCT was 948; that for CCTTCCTCCGCTTTCGGTGCCTGTTTCCGCCTCCAA was 1720.
Regarding TTGTGCTTCCTGCTCATGAGATTGCTAGCGGCTACT, the ETS1 binding intensity is 6410 ± 700.
To CTGCCCATCGCTGTTAACTTTTCCGCCTCCTTAAAG belongs 492.
To GAAGTGGACACGGAACTCGGCTGCAGCTCCATGGTC belongs 342; to CCTCCCTCCGCTCGCCTTCTTCCCGGAAGCTAAGTT, 640.
TGCAGGGAGCGCCTACAAAGGGAGGATGTCGCCGGC: the ETS1 binding intensity worked out at 345.
The value for TCTCGTCCGGTCCTTGCTCCCCCTCCCCTCAGCGCT was 5380; that for TTTTCCGACGGAAGCCTTACTGCCCCAAACGTCACT was 1260; that for CCCTGCCGTCGAGGTGCACTCTGGGAAATGTGATTT was 405.
In turn, AGCTCCACCGGAAACGGCCTGGCCGAAGCCAATCAG gave an ETS1 binding intensity of 20000.
As to TGCTTAGCGGGAAGTGCTTACACCCCAAAACAAGAC, the ETS1 binding intensity is 6200.
The value for GACGCCCTATTCGGGAGCCGGATGGGCGTAACGGGG was 550.
To GCCTTCTGGGAAATGTAGTTCCCCGTCACCGTGAAG belongs 351.
The value for AAGTGAGGCGGCTACCTCGGCGCCTTTTCCGGCAGC was 396.
Regarding TTAGACGAGGCTCTGGCTACCGGAAAGAGCGCAGGC, the ETS1 binding intensity was found to be 838.
The value for AAGCCCTCAGCCCGGCCCCGGCCCCCGGATGTGGGG was 467; that for TTACGACACTTCCGGCGACGCCCCTCAGCCTTCACC was 17500.
To AGAGGCTTCCTGAGGAACTGGTGTTGTCAGGGGAGC belongs 1620; to GCCCCGGAAGTGGCCCGGCTGTTGGCCGAAGCGGGA, 8010; to TTTCTCTGGCCGGGGAAATTGAGGTCACTTCCTGTC, 4180.
CCTCACAGGGACTTCCTTCCCCGCTGTTCAGGAATC showed an ETS1 binding intensity of 2330.
To CTCCAAGCCCAGAGAGCACCCCTTCCTGCCCGGACA belongs 737; to TCTCTTTGGTGGATTCTTCTTTATCTTCCTGGCTAG, 552.
The value for AGCTTGCTTCCTGTCCCCAAAACTCACAGCACACGG was 15500; that for GCCTCCTCAGGAAATTGCCCAAAATAGCGACATGTT was 1420; that for CTTCTGGCCGTAAGGCGCCAGCGCTTCCGGGCCCCA was 1270.
The value for TTGGTGCTTAGACCTGGGGAGGGGCAGGATGTGGCA was 698; that for TGGAACCATCACCCTCAACCAGAGGAAACTGTCTGG was 436.
Take GCCAACAGGAAGCTGGAAGCCAAACGCACTGTGTGC: the ETS1 binding intensity came to 3500.
ATAGTGCAGTGAGCCAACATGGGGGAAATGCCTGGA displayed an ETS1 binding intensity of 415.
The value for GCGCAAGGAAGGACTGCAAGGAGGCCGAAGGTTAAA was 326; that for AAAATCACATTGCCTGTGCTGCAGGCCGGAAAGCTG was 339; that for GCCAAGAGGGAGACGGCGTGCCTTTCCTGCAGCCGA was 331.
GGTTTCACTTCCTGCGTTGGGCCTTGTAGCCTCCTT registered an ETS1 binding intensity of 12700.
As to GACGGCCGCTTTTGGCGCGGGACTTCCTGCCTGGCC, the ETS1 binding intensity was 3070.
To GTGCGCCTACGGCGGCGACGAAACCGGAAGACAAGC belongs 1690; to TCCGCCGAAACCCGACTGGGAGGTGGCGGAACGACT, 326; to GAATGACAGGAAGATGATTAGTGATAGTGGATTTGG, 991.
The value for GCCGTGAATGCGAGCTCTCCTGCCGGAAGCTGCCCC was 883; that for AGCGAGCGGAACAAGCTGGCGGCGGCCAAGTGCAGG was 469.
The value for GCAGGAAGCAGGTGGCAGGGAGTGGACCTACAGCAT was 600; that for CTGGCGGACAGCGGCGCACTTCCGTAGAGGTGGACA was 1930; that for GCTAGACAGGAAACAGTGAGCTTCTGTGAGCAGGAG was 4180.
GTGGTCGGGAGGGGAAGTGAGGCGGCTACCTCGGCG came in with an ETS1 binding intensity of 879.
The value for GTGTTTATCACACGCGGGCCCTCAGGAAGTGCATCA was 452.
Sequence CTTGGCTTATTCTGGGAGCCACTTCCCTGGCTTTCA displayed an ETS1 binding intensity of 338.
Turning to CTCCACCGGATGCAGCAATGAAGGCCGTAGGAATGG, the ETS1 binding intensity worked out at 8440.
To GACAGGAAGCCCGCGGCAGCCTCCGAGGTTGCAGAT belongs 2230.
To AGTGCTGTAGTTTGACTTTGTTTTTCCTGTAGCCAG belongs 494; to GCCACACTTCCGGCGGGGCTGCGACTGCAGAGGGGC, 38700; to AACGGACCCGGAAGGGGCAGGTCTTGTGAGCGGGTC, 912.
The value for TCTTTAGTGTAGTTTTGGTAGGAAGGAAAGTAGTTT was 583.
For GTGAGAGGAAGTGGGCGCTGGTTTAATGTGCTCAGC, the ETS1 binding intensity turned out to be 1900.
To GGCCAGGCGCTGCAGGCAGTCATTTCCTTAGCAACT belongs 495.
The value for AATCATTTCCTGCCCTAACGTTTTTGGTCTGCCTAG was 21400; that for CCGCTAGCCTGCAGCGCTCGGCTTCCTGGTAATTCT was 448.
The sequence AGCCATCCTGATAGGAGATCCTCCCACCCCAGCTGA had an ETS1 binding intensity of 821.
To TCACAATCGCTCACAAAGACAGGAAGTAACTGTCAG belongs 3450; to TCGGGCTGCCGAAGAGCAGCTATTTCCTGTCTGCAC, 5010; to CGGGCCCGTAGATATCACACGCACCCGGAAGTCCTC, 822.
AAGCCAGGATACCGAAGCCCTGCAGGATGTGACTCA registered an ETS1 binding intensity of 672.
In the case of GCTGCACCTCACGGACAGGGACCCGGATGGAAAGCT, the ETS1 binding intensity turned out to be 346.
To GCCAAGGCCTTCCGCCGAGTTGGCTTTTGGGTTGTT belongs 898.
Sequence GCGCCCCGCTTCCGGGGCCGCCCTAAACGGCGGCCG displayed an ETS1 binding intensity of 10100.
To AGTGGATAGCACTTCCTTCTCTTACGACAGTTCCTT belongs 2450.
To GAACCTTGGCGCGGCGACGCTAGTTTCCGGCGGGCT belongs 1270.
The value for GAGCGCGGAACTCGCCACGGTAAGGATTACGACAGG was 403.
On to AGACAAAGTGCTTGTAAGCCACTTCCTCCACACCCT, for which the ETS1 binding intensity was 1130.
The value for CATCTCGGAAACGGACAGCAAGATCGCGCATTAACA was 431; that for AACCCAGGCTTCCTGACTCGCCGTCTTGTTATCAGT was 1310.
To CTGCCTTGCTTTTCCGGTCGCCGCTGTCCTCTGCGC belongs 6060; to GCCTTACTGCCCCAAACGTCACTTCCTTCGGCCGCT, 949; to ACGCCGCGCATCCGCGCTTTACGGCGGGCGCCAAAT, 1580.
To CCCCGGAACCGAAGGCCACCTCTTGGGGCTGCGAGC belongs 400; to CCTTCAGGCCGCTGCGCGGGGCACGCCGGGAAGCGC, 305; to GACTGCGCCGGACGCGCCAGCCCTGCGCGATGACGT, 678.
On to CGTGGCCGGAAAGCTCTCAGCGGCGAGCACCGAGGG, for which the ETS1 binding intensity was 715.
To TCTTGCTGGTACTGCTGCACAGCAGGAAGTGGAAAC belongs 1140.
To ACTGATAACAAGACGGCGAGTCAGGAAGCCTGGGTT belongs 408; to GAAGCCCCGAAATTATTGGGGGGCTTCCTCCCGCGC, 393; to CGTGTGAGGGGGCGCAAGGCAGCGGCAGCTTCCGCC, 830.
GGCGTCACATGACCATGAACACTCTTCCGCTACGGC registered an ETS1 binding intensity of 575.
For TACCTACAGGAAATGAGACACACCTCAGGCCGATCC, the ETS1 binding intensity was 5550.
To TGTATGTTTCGTGGGGGCGGAAGTGGAGTGAAAGAC belongs 3560; to GCTCAAACAATAAGCACAACACTTCCTGCCTCTCTC, 4230; to TTTAACCTTCGGCCTCCTTGCAGTCCTTCCTTGCGC, 385.
To CCGGGTGGCCATAAACATCACCCGGAAGCCTGAATA belongs 4450; to CTCGGCCAACGCGTGCTCCACTCGGAAGTGGTGCCG, 457; to CCTGTCCTGATCGCGGCGAATAACATTTCCTACAGC, 596.
The value for AGCCCGCCGGAAACTAGCGTCGCCGCGCCAAGGTTC was 3100.
CAAAGCTACCAAAAAGCTACCAGAGAACGGAAGAGA: the ETS1 binding intensity was determined as 442.
The value for AGAACGGCAGGGGTTTCCAGGATGGTCTGGAGGAGG was 400.8 ± 3.1.
The value for GTGGCTTTGGGGTTCCTTGTTTCCTGGGCTGGTCTG was 489; that for TCCGCTTCTGTTGTCTGATCTTCCTGGGGCTGAACC was 386.
On to TAAGAAGCTCCAGCAGCAGGCACGGAAATAAACAGC, for which the ETS1 binding intensity stood at 380.
The sequence TGCAAAAAAACAGGAAACACCCAGCCGTAAATTATA yielded an ETS1 binding intensity of 1830.
The value for CTACCGGAAATGCAGCACCACGTAAAATGCGCTCGG was 18100; that for AGCTGGGGTAGGGGGCAGAACCGGGAACCGGATGTT was 4510; that for CGGAGGCGCGATTTCCAAGCACGGAAACCTTCAGCC was 357.
The value for CAGCTAGAGGAAGCGCTTCGCCCGCGAACCCCAGGG was 1380.
To CCAACACGGATACAAAAAATATCTCTCTACCTCACT belongs 677; to CAGATTTCCGGCTTCTGAGGAGCTGCCCTACCCCAG, 38200.
ATGAAAGGACCAAAAAGCCTCAGACAGGAAGCTGCA gave an ETS1 binding intensity of 839.
The value for CTTTGCAGGGAATAACTTGGGGTTTCCTGTCTTGAT was 1340; that for TGCAACGCCGGAATCGCGCAAGCCGCCGGTGCACGT was 342.
To GCTAAGAGCAGGAAATGATCTGGGAACCTCCATCAC belongs 4150; to CCGGGAAACACGGGAGAGCGACCGAAATCGCAATCA, 424.
Take CCTTGCTGCAGGATGCTCTAACTACAAGCCCAGGAG: the ETS1 binding intensity came to 602.
Consider GGCGGGGGAGGCGGGTCGGGAAGTAGTGCCGGGTGC, for which the ETS1 binding intensity was found to be 1090.
